The text below walks through data of ChEMBL document CHEMBL4888484, “Replenishing the malaria drug discovery pipeline: Screening and hit evaluation of the MMV Hit Generation Library 1 (HGL1) against asexual blood stage Plasmodium falciparum ,using a nano luciferase reporter read-out” (2022).

The campaign covered roughly 150,000 compounds. About 540 (0.36%) showed an effect of 50% or more. The list shows a part of the results.

In this assay the test system is Plasmodium falciparum. The experiment in a line: Primary screen in NF54 nanoGlo assay, in single point, at 2uM, 72h; a lower Z score goes with more inhibition. In kind it is functional, Erythrocyte. The conditions noted are these: timepoint 72 hour.
In the case of `C[C@]1(C#N)CCCN(C(=O)Cc2ccsc2)C1`, the “% Inhibition” value was -12% and the Z score was determined as 1.65.

For `CCn1nc(CC(C)C)cc1C(=O)N1C[C@@H](CN2CCOCC2)[C@@H](CO)C1`, the “% Inhibition” value is on record as -8% and the Z score worked out at 1.26.

Consider `CC[C@H](NC(=O)c1cncn1C)c1cnn(C)c1`, for which the “% Inhibition” value is on record as 0% and the Z score is given as 0.07.

As for `Cc1c(O)nc(CCN(C)C(=O)CCc2cccc(Cl)c2)[nH]c1=O`, the “% Inhibition” value was -17% and the Z score came to 1.86.

Turning to `Fc1ccccc1CN(Cc1cnc2ccccn12)C1CCOCC1`, the “% Inhibition” value is on record as -4% and the Z score was determined as 0.47.

On to `CC(C)(O)Cn1nnc(Cc2cccc(Br)c2)n1`, for which the “% Inhibition” value is -7% and the Z score came out at 0.92.

As for `CCc1noc(C)c1C(=O)N1CCO[C@H](c2nccs2)C1`, the “% Inhibition” value was -10% and the Z score stood at 1.31.

In the case of `O=C(CC1CCCC1)N1CC[C@@]2(CCCN(Cc3ccc(F)c(F)c3)C2=O)C1`, the “% Inhibition” value is -3% and the Z score is on record as 0.46.

Consider `CC(C)C1CCCC(NCc2nncn2C2CC2)CC1` (stereo not given), for which the “% Inhibition” value is given as -9% and the Z score is on record as 1.4.

On to `Cc1ccc(S(=O)(=O)N(OS(=O)(=O)c2ccccc2)c2ccccc2)cc1`, for which the “% Inhibition” value is -16% and the Z score worked out at 1.78.

Regarding `CCCC(CCC)C(=O)Nc1cccc(Br)c1`, the “% Inhibition” value is given as -44% and the Z score is 5.14.

Consider `Nc1c2c(-c3ccc(F)cc3F)nc(NC3CC3)nc2nn1-c1ccc(Cl)cc1`, for which the “% Inhibition” value is listed as -20% and the Z score was 2.19.

On to `CO/C(=N/C(=O)c1cccc(F)c1)NCCN1CCCCC1`, for which the “% Inhibition” value is given as -5% and the Z score was 0.97.

In the case of `CC(C)CN(c1ncnc2c1cnn2C)C1CC1`, the “% Inhibition” value is listed as -8% and the Z score came out at 1.26.

As to `COCC1(C)CN(C(=O)NCC(C)(C)c2ccc(C)cc2C)C1`, the “% Inhibition” value is recorded as -6% and the Z score amounted to 1.14.

As to `C[C@@H](Cc1csc2ccccc12)NC(=O)c1ccc(Cl)s1`, the “% Inhibition” value is given as -4% and the Z score is 0.47.

For the compound `Cc1nc(C)c(C(=O)N(c2cnc3ccccc3c2)C(C)C)s1`, the “% Inhibition” value is given as -16% and the Z score is recorded as 1.64.

As to `CCc1ccc(CN2CCN(c3ccnc4nncn34)CC2)cc1`, the “% Inhibition” value is listed as -6% and the Z score stood at 0.63.

As to `C=CCn1ccnc1-c1ccc(C)c(F)c1F`, the “% Inhibition” value is listed as -1% and the Z score is listed as 0.17.

On to `Cc1cc(F)cc(C(=O)NCCOC(N)=O)c1`, for which the “% Inhibition” value was -1% and the Z score is given as 0.11.

Take `NS(=O)(=O)c1ccc(CCNC(=O)C2C3CCC(C3)N2C(=O)c2ccccc2)cc1` (stereo not given): the “% Inhibition” value was -8% and the Z score turned out to be 1.42.

Take `Cn1cnnc1-c1cncc(NC(=O)c2ccc(Cl)cn2)c1`: the “% Inhibition” value is listed as -22% and the Z score was 3.66.

As for `CC(C)(C)OC(=O)C1CCN(c2cc(N3CCCC3)ncn2)CC1`, the “% Inhibition” value was -16% and the Z score came out at 2.67.

Regarding `O=C(Cc1ccc(Cl)cc1)N[C@@H]1CC=CCC1`, the “% Inhibition” value is reported as 13% and the Z score was -1.78.

Consider `O=C(NCCc1ccccn1)C1Cc2cc(C(F)(F)F)ccc2N2CCN(C3CCCC3)CC12` (stereo not given), for which the “% Inhibition” value is -3% and the Z score stood at 0.39.

Take `Cc1cnccc1Cn1ccc(-c2cccc(-c3nccs3)c2)n1`: the “% Inhibition” value was -6% and the Z score came out at 1.09.

Take `Cc1cc(N(C)C)n2nc(CN3CCN(c4ccccc4Cl)CC3)nc2n1`: the “% Inhibition” value amounted to 10% and the Z score is -1.25.

In the case of `COc1cccc(-c2cc(C(F)(F)F)n3nc(C(=O)Nc4cnn(C(C)C)c4)cc3n2)c1`, the “% Inhibition” value was found to be 32% and the Z score was -3.61.

Take `Cc1cc(C(=O)N2CC[C@@H](N3CCOCC3)[C@H]2C)nc(C(F)(F)F)n1`: the “% Inhibition” value is recorded as -6% and the Z score was 0.81.

Regarding `N#Cc1ccccc1OCc1csc(-c2ccccn2)n1`, the “% Inhibition” value is 34% and the Z score is reported as -4.33.

Turning to `O=C1Nc2ccccc2Nc2nc(-c3cccnc3)ccc21`, the “% Inhibition” value is -9% and the Z score is on record as 1.65.

On to `COc1ccc(NC(=O)CN(C)CC(N)=O)c(OC)c1`, for which the “% Inhibition” value is -4% and the Z score is 0.82.

`CCn1c(CN2CCC(N3C(=O)O[C@H]4CNC[C@H]43)CC2)nc2cc(F)ccc21`: the “% Inhibition” value stood at 2% and the Z score is -0.21.

For `Cc1noc(COCC(=O)N2CC[C@H](C)C2)n1`, the “% Inhibition” value is given as 11% and the Z score is reported as -1.41.

For the compound `Cc1ccc(C2=C[C@@H](c3ccccc3)n3nnnc3N2CC(=O)NC2CCCCC2)cc1`, the “% Inhibition” value is -3% and the Z score is given as 0.27.

As for `O=C(CN1CCCCC1=O)NC[C@H]1CCOC1`, the “% Inhibition” value is -4% and the Z score was 0.63.

For the compound `O=C(Cn1cc(C(=O)c2ccc(F)cc2)nn1)Nc1ccc2c(c1)OCO2`, the “% Inhibition” value is given as -3% and the Z score is given as 0.24.

Take `CC(C)n1nnnc1Cn1nc(C(F)(F)F)ccc1=O`: the “% Inhibition” value is recorded as -10% and the Z score is given as 1.38.

In the case of `COCCC(=O)N1C[C@H]2CC[C@@H](C1)N(Cc1c(C)noc1C)C2=O`, the “% Inhibition” value was -8% and the Z score was found to be 1.3.

Regarding `O=C(Nc1ccc2ccccc2c1)c1ccncc1`, the “% Inhibition” value was -3% and the Z score is listed as 0.43.

With `CCCCCNC(=O)CNC(=O)c1ccc(Cl)c(Cl)c1`, the “% Inhibition” value is -8% and the Z score worked out at 0.84.

For the compound `CC(=O)N1CCCN(CC(=O)N2CCc3sccc3C2)CC1`, the “% Inhibition” value is -15% and the Z score is reported as 1.58.

In the case of `CCOC(=O)C1CCCN(C(C)C(N)=O)C1` (stereo not given), the “% Inhibition” value is on record as -3% and the Z score was 0.61.

As to `CCn1cnnc1CN(C)Cc1ccc(OC)nc1`, the “% Inhibition” value is -3% and the Z score is 0.65.

`C[C@@H](CCc1ccccc1)NC(=O)NCCCCS(N)(=O)=O`: the “% Inhibition” value is listed as -17% and the Z score amounted to 2.31.

For `Cc1cc(C)c(C#N)c(N2CCCN(S(=O)(=O)Cc3ccccc3)CC2)n1`, the “% Inhibition” value is given as -1% and the Z score turned out to be 0.14.

Regarding `CC(=O)c1c(N2CCOCC2)nc(=O)n(-c2ccccc2)c1C`, the “% Inhibition” value is given as -5% and the Z score came out at 0.73.

On to `CCCN1C(=O)[C@@]2(CC(=O)Nc3c2c(C)nn3-c2ncnc3nc[nH]c23)c2ccccc21`, for which the “% Inhibition” value is 3% and the Z score is given as -0.31.

`O=C(Cc1cccc(Cl)c1)Nc1nccn1-c1ccccc1`: the “% Inhibition” value worked out at 5% and the Z score is reported as -0.79.

Turning to `COc1cc2c(cc1OC)CN(C(=O)C[C@@H]1NC(=O)N(c3ccc(C(C)C)cc3)C1=O)CC2`, the “% Inhibition” value is given as -3% and the Z score is recorded as 0.37.

As for `CCCOCc1nc(C2(c3ccccc3)CC2)nn1[C@H]1CCS(=O)(=O)C1`, the “% Inhibition” value was -11% and the Z score is on record as 1.04.

Regarding `Cc1noc(-c2nc(-c3ccc4c(c3)OCO4)no2)n1`, the “% Inhibition” value was 4% and the Z score is reported as -0.41.

As to `Cc1cc(-c2cc(S(=O)(=O)NCc3ccc4c(c3)OCO4)c(C)s2)on1`, the “% Inhibition” value was -6% and the Z score turned out to be 0.58.

As to `Cc1ccccc1NC(=O)Cn1cc(-c2noc(-c3ccccc3)n2)nc1C`, the “% Inhibition” value was -7% and the Z score turned out to be 0.95.

As to `COc1cccc(C(=O)N2CCN(C(=O)Cc3c(C)n[nH]c3C)CC2)c1`, the “% Inhibition” value is given as -2% and the Z score came to 0.38.
